Assay results published in PubChem BioAssay AID686970 (National Center for Advancing Translational Sciences (NCATS), 2013).
Out of some 360,000 compounds screened, about 6,000 (1.7%) were called active. The inconclusive results got no clear call from the source; some entries with a clear call stand among them for comparison. Calls follow the shape of the dose curve; as a rule, active = well fitted cell-killing curve with a large enough effect; inconclusive = small, poorly fitted or top-dose-only effect, or effect the other way; inactive = flat fitted curve, though single readings scatter. No potency is given beside an inconclusive call; the fits are too rough.

Assay: qHTS for induction of synthetic lethality in tumor cells producing 2HG: qHTS for the HT-1080-NT fibrosarcoma cell line;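 also: NT is the 2HG producing partner of a matched IDH1 knockdown line; nearly all actives have a fitted effect of over 55% in size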;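 as to activity, negative = less viability: 0% = DMSO-treated cells and -100% = media-only wells without cells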
Conditions: HT-1080-NT fibrosarcoma viability, CellTiter-Glo ATP luminescence, 48 h; activity, negative = less viability: at 46.1 µM (top of the series) unless noted
How it was run: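 HT-1080-NT; 750 cells/well; 5% FBS RPMI; 48 h compound, 37 degrees C; CellTiter-Glo luminescence; curve fitting and curve-class assignment.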
Potency is read from the fitted curve at half-maximal effect; tags tell the direction and shape of the fitted curve.

Row | Compound | Potency | activity, negative = less viability
1 | OC1(c2ccc(Cl)cc2)CCN(Cc2cn[nH]c2-c2ccccc2)CC1 | inconclusive [cytotoxic, partial curve] | 
2 | NS(=O)(=O)c1ccc(NCc2cc(Cl)ccc2OCc2ccc(F)cc2)cc1 | inconclusive [cytotoxic, single point] | 
3 | CCOC(=O)C1=C(C)NC(SC)=C(C#N)C1CC(C)C (configuration not stated) | active: 1.84 µM | 
4 | O=C(Nc1ncc([N+](=O)[O-])s1)c1ccccc1Br | inconclusive [cytotoxic, single point] | 
5 | CCN1CCCC1CNC(=O)c1cc2c(-c3cccc(OC)c3)nn(C)c2s1 (configuration not stated) | active: 20.6 µM | 
6 | O=C(C=C(O)c1ccc(Cl)cc1)C(=O)NNC(=O)C(O)(c1ccccc1)c1ccccc1 | inconclusive [cytotoxic, single point] | 
7 | Cc1cccc(C(=O)N/N=C2\CS(=O)(=O)N(C)c3ccsc32)c1 | inconclusive [cytotoxic, single point] | 
8 | CCNNC(=O)C(O)(Cc1ccccc1)Cc1ccccc1 | inconclusive [rising, single point] | 
9 | COc1ccc(OC)c(C2C(C#N)=C(N)N(N(C)C)C3=C2C(=O)CC(C)(C)C3)c1 (configuration not stated) |  | inactive: 3.79%
10 | Clc1cccc(Cc2c(C3CCCCC3)nc3ccc(Br)cn23)c1 | inconclusive [cytotoxic, single point] | 
11 | O=[N+]([O-])c1cc(Br)ccc1NS(=O)(=O)c1ccccc1 | inconclusive [cytotoxic, single point] | 
12 | CC/C(C)=N/Nc1nc(-c2cc3cccc(OC)c3oc2=O)cs1 | inconclusive [cytotoxic, single point] | 
13 | COCCCn1c(=O)/c(=C\c2cccc(OC)c2OC)s/c1=C(/C#N)C(=O)Nc1ccc(C(=O)O)cc1 | inconclusive [cytotoxic, single point] | 
14 | O=C1c2cccc3c(N4CCCCC4)ccc(c23)C(=O)N1c1ccccn1 |  | inactive: -3.04%
15 | O=C(CNS(=O)(=O)Cc1ccccc1)NCc1ccccc1 |  | inactive: 20.9%
16 | Cc1c(C(=O)N2CCN(S(=O)(=O)c3ccc(F)cc3)CC2)oc2ccccc12 |  | inactive: 8.32%
17 | O=[N+]([O-])c1cc2c(cc1/C=N/Nc1nc(Nc3ccccc3)nc(N3CCCCC3)n1)OCO2 | inconclusive [cytotoxic, single point] | 
18 | COc1ccc(N2CCc3c(C)nc4c(OC)cccc4c32)cc1 | active: 3.66 µM | 
19 | CCNC(=O)/C(=C/c1ccc2c(c1)OCO2)NC(=O)c1ccc(Br)cc1 |  | inconclusive: 31.7%
20 | Cc1nn(-c2ccccc2)c(Cl)c1CN(C(=O)CCl)c1cccc2ccccc12 | active: 4.11 µM | 
21 | CN1CCCC1CCNc1ccc2sc3ccccc3c(=O)c2c1 (configuration not stated) | inconclusive [cytotoxic, single point] | 
22 | COc1ccccc1-c1nnc(SCC(=O)NCc2c(C)c(Cl)cc(C(C)C)c2O)o1 | inconclusive [cytotoxic, single point] | 
23 | O=C1COc2ccc(-c3csc(=Nc4ccc(OC(F)F)cc4)n3CC3CCCO3)cc2N1 (configuration not stated) | inconclusive [cytotoxic, single point] | 
24 | O=S(=O)(c1ccc2nc(Nc3ccccc3)ccc2c1)N1CCCCC1 | inconclusive [cytotoxic, single point] | 

Row | Compound | Potency | activity, negative = less viability
25 | O=[N+]([O-])c1ccc(N2CCC(=NOCc3ccc(Cl)cc3)CC2)cc1 | inconclusive [cytotoxic, single point] | 
26 | O=C(NCCc1ccccc1)c1cc(-c2ccco2)on1 | inconclusive [cytotoxic, full curve] | 
27 | CN(C)S(=O)(=O)c1cccc(NC(=O)CSc2nc3c(cc2C#N)C(=O)CC(C)(C)C3)c1 | inconclusive [cytotoxic, single point] | 
28 | NC(=O)c1c(N)[nH]c(C(=O)c2ccccc2)c1-c1ccccc1Br |  | inactive: 21.2%
29 | Fc1ccc(N2CCN(c3nc(-c4ccco4)cc(C(F)(F)F)n3)CC2)cc1 |  | inactive: -25.3%
30 | COc1ccccc1Cc1c(-c2ccc(F)cc2)nc2c(C)cc(Br)cn12 | inconclusive [cytotoxic, single point] | 
31 | Cc1nn(CCC(N)=S)c2nc(-c3cccs3)cc(C(F)(F)F)c12 |  | inactive: -11.8%
32 | O=C(NC1CC1)C1CCN(C(=O)c2ccccc2Cl)CC1 | inconclusive [rising, single point] | 
33 | Cc1nc(-c2ccc(F)cc2)c(CC(=O)N(C)CC(=O)Nc2ccccc2Cl)s1 |  | inactive: 0.289%
34 | Cn1c(SC2=CS(=O)(=O)c3ccccc32)nc2ccccc21 | active: 18.4 µM | 
35 | O=C1C=C(c2ccc3cc[nH]c3c2)C[C@@H](c2ccc3c(c2)OCO3)C1 | active: 18.4 µM | 
36 | CCCC(=O)NC(=S)Nc1cccc(Cl)c1N1CCCCC1 | active: 5.01 µM | 
37 | CCC[N+](CC#Cc1ccccc1)(CCC)CC(=O)OC |  | inactive: 11.5%
38 | CCCCNC(=O)C1(C)CCC(=O)N1CC(F)(F)F (configuration not stated) | inconclusive [rising, partial curve] | 
39 | CCCNS(=O)(=O)c1cc(CN2C(=O)c3cccnc3C2=O)ccc1OC |  | inactive: 10.7%
40 | COc1ccc(NC(=O)CN2C(=O)NC(C)(C3CC3)C2=O)c(OC)c1 (configuration not stated) |  | inactive: 5.57%
41 | O=C(NNC(=S)Nc1cccc(C(F)(F)F)c1)c1ccc(Cl)cc1Cl | inconclusive [cytotoxic, single point] | 
42 | CC(=O)c1ccc2c3c(cc(C)c2c1)CCCC3 |  | inconclusive: 10.3% [cytotoxic]
43 | Cc1ccc(/C=N/c2sc(Cc3ccccc3)c(C)c2C(N)=O)o1 | inconclusive [cytotoxic, single point] | 
44 | Cn1c(C(=O)OCC(=O)NCCc2ccccc2)cc2sccc21 | inconclusive [cytotoxic, partial curve] | 
45 | COc1ccccc1NC(=O)Nc1ccnn1C1CCN(C(=O)C2CCOC2)CC1 (configuration not stated) |  | inactive: -1.26%
46 | O=C(O)C1C2C=CC(C2)C1C(=O)NCc1cccnc1 (configuration not stated) |  | inactive: -0.157%
47 | Cc1ccc2c(c1)C1(C(=O)N2)N2CCCC2C(C(=O)c2ccc3ccccc3c2)C12C(=O)Nc1ccccc12 (configuration not stated) | inconclusive [cytotoxic, single point] | 
